Test results taken from PubChem BioAssay (NCATS).
Records with an inconclusive call do not appear. Calls come from the whole dose curve; as a rule, active = well fitted curve in the direction sought with a large enough effect; inconclusive = small, poorly fitted or top-dose-only effect, or another doubt; inactive = no such curve, though single readings can be large; an effect the other way counts as inactive or inconclusive. Some structures have more than one record in an assay (separate samples or runs), and their calls can disagree. Some entries of the source have several records that differ or are many. They are shown here; other results are not. The source may hold further records. Values given together are repeats across runs, samples, wells, individuals or studies. What stands in brackets tells the records apart. The letters are not those of the source and start again with each entry.

Tested on: not listed separately
Experiment: qHTS of pediatric cancer cell lines to identify multiple opportunities for drug repurposing: Primary screen for SK-N-MC cells (AID 1347093)
Conditions: SK-N-MC viability, CellTiter-Glo luminescence, 48 h; series mostly up to 46 µM
Potency is the fitted concentration of half-maximal effect.

| Compound | Potency |
| --- | --- |
| Cc1cc(C(C)(C)C)c(O)c(C)c1CC1=NCCN1 | active: 16.6 µM [sample A] and inactive [sample B] |
| COc1ccccc1OCC(O)CN1CCN(CC(=O)Nc2c(C)cccc2C)CC1 (centres undefined) | inactive [sample A] and active: 23.5 µM [sample B] |
| COc1ccc2[nH]cc(CCNC(C)=O)c2c1 | active: 18.7 µM [sample A] and inactive [sample B] |
| Cn1c(=O)c2[nH]cnc2n(C)c1=O | inactive [sample A] and active: 18.7 µM [sample B] |
| CN1C(C(=O)Nc2ccccn2)=C(O)c2ccccc2S1(=O)=O | inactive [sample A] and active: 3.32 µM [sample B] |

Tested on: not listed separately
Experiment: qHTS of pediatric cancer cell lines to identify multiple opportunities for drug repurposing: Primary screen for BT-37 cells (AID 1347094)
Conditions: BT-37 viability, CellTiter-Glo luminescence, 48 h; series mostly up to 57.3 µM
How it was run: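 Quantitative HTS format: each compound titrated (MIPE 11 points from 0.78 nM, NPC 8 points from 0.59 nM) onto cells plated 5 hours earlier. After 48 h at 37 degrees C, CellTiter-Glo luminescence was recorded.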

| Compound | Potency |
| --- | --- |
| CC(C)Cc1ccc(C(C)C(=O)O)cc1 (centres undefined) | active: 1 nM [sample A] and inactive [sample B] |
| N[C@@H](Cc1c[nH]c2ccc(O)cc12)C(=O)O | active: 24.3 µM [sample A] and inactive [sample B] |
| CN1C(C(=O)Nc2ccccn2)=C(O)c2ccccc2S1(=O)=O | inactive [sample A] and active: 3.06 µM [sample B] |

Tested on: not listed separately
Experiment: qHTS of pediatric cancer cell lines to identify multiple opportunities for drug repurposing: Primary screen for NB-EBc1 cells (AID 1347095)
Conditions: NB-EBc1 neuroblastoma viability, CellTiter-Glo luminescence, 48 h; series mostly up to 46 µM

| Compound | Potency |
| --- | --- |
| N[C@@H](Cc1c[nH]c2ccc(O)cc12)C(=O)O | active: 18.7 µM [sample A] and inactive [sample B] |
| OCCN1CCN(CCCN2c3ccccc3Sc3ccc(C(F)(F)F)cc32)CC1 | active: 2.09 µM [sample A] and inactive [sample B] |
| CN1C(C(=O)Nc2ccccn2)=C(O)c2ccccc2S1(=O)=O | inactive [sample A] and active: 1.66 µM [sample B] |
| CCOC(=O)C(C)(C)Oc1ccc(Cl)cc1 | active: 20.9 µM [sample A] and inactive [sample B] |

Tested on: not listed separately
Experiment: qHTS of pediatric cancer cell lines to identify multiple opportunities for drug repurposing: Primary screen for NB1643 cells (AID 1347099); note: nearly all actives have a fitted effect of over 50% in size
Conditions: NB1643 neuroblastoma viability, CellTiter-Glo luminescence, 48 h; series mostly up to 46 µM

| Compound | Potency |
| --- | --- |
| CCCCc1oc2ccccc2c1C(=O)c1cc(I)c(OCCN(CC)CC)c(I)c1 | active: 14.8 µM [sample A] and inactive [sample B] |
| CC(CCc1ccc(O)cc1)NCCc1ccc(O)c(O)c1 (centres undefined) | active: 20.9 µM [sample A] and inactive [sample B] |
| CS(=O)(=O)Nc1ccc([N+](=O)[O-])cc1Oc1ccccc1 | inactive [sample A] and active: 14.8 µM [sample B] |
| CN1CCC(=C2c3ccccc3C=Cc3ccccc32)CC1 | inactive [sample A] and active: 11.8 µM [sample B] |
| OCCN1CCN(CCCN2c3ccccc3Sc3ccc(C(F)(F)F)cc32)CC1 | active: 14.8 µM [sample A] and inactive [sample B] |
| CN1C(C(=O)Nc2ccccn2)=C(O)c2ccccc2S1(=O)=O | inactive [sample A] and active: 4.69 µM [sample B] |
| CCOC(=O)C(C)(C)Oc1ccc(Cl)cc1 | active: 23.5 µM [sample A] and inactive [sample B] |
| COC(=O)Nc1nc2ccc(C(=O)c3cccs3)cc2[nH]1 | inactive [sample A] and active: 266 nM [sample B] |

Tested on: not listed separately
Experiment: qHTS of pediatric cancer cell lines to identify multiple opportunities for drug repurposing: Primary screen for LAN-5 cells (AID 1347100)
Conditions: LAN-5 neuroblastoma viability, CellTiter-Glo luminescence, 48 h; series mostly up to 46 µM
How it was run: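 Viability after 48 h compound treatment at 37C, 500-1,000 cells/well, read as ATP luminescence with CellTiter-Glo. Primary screens used 11-point (MIPE, 0.78 nM-46 µM) or 8-point (NPC, 0.59 nM-46 µM) final concentrations; follow-up screens used 11-point dilutions.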

| Compound | Potency |
| --- | --- |
| CS(=O)(=O)Nc1ccc([N+](=O)[O-])cc1Oc1ccccc1 | inactive [sample A] and active: 20.9 µM [sample B] |
| CN1CCC(=C2c3ccccc3C=Cc3ccccc32)CC1 | inactive [sample A] and active: 20.9 µM [sample B] |
| Clc1ccc(C(c2ccccc2Cl)C(Cl)Cl)cc1 (centres undefined) | inactive [sample A] and active: 37.2 µM [sample B] |
| COc1cc2c(c(OC)c1OC)-c1ccc(OC)c(=O)cc1[C@@H](NC(C)=O)CC2 | active: 59.6 nM [sample A] and inactive [sample B] |
| OCCN1CCN(CCCN2c3ccccc3Sc3ccc(C(F)(F)F)cc32)CC1 | active: 4.69 µM [sample A] and inactive [sample B] |
| CN1C(C(=O)Nc2ccccn2)=C(O)c2ccccc2S1(=O)=O | inactive [sample A] and active: 2.64 µM [sample B] |

Tested on: Zika virus NS2B-NS3 protease
Experiment: Primary screen GU AMC qHTS for Zika virus inhibitors (AID 1347154); note: nearly all actives have a fitted effect of over 70% in size
Conditions: Zika NS2B-NS3 unlinked protease, AMC fluorogenic substrate; series mostly up to 54.1 µM
How it was run: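 Unlinked Zika NS2B hydrophilic domain–NS3 protease complex at 25 nM in 10 mM Tris-HCl pH 8.0, 0.01% Tween 20, with an AMC peptide substrate. Fluorescence change (340/450 nm) over 15 min at room temperature, normalized to controls, fitted to 4-parameter Hill.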

| Compound | Potency |
| --- | --- |
| COc1cc2nc(N3CCN(C(=O)c4ccco4)CC3)nc(N)c2cc1OC | inactive and active: 26.7 µM, 7 µM, 18.9 µM [separate samples] |
| Cc1cnc(C(=O)NCCc2ccc(S(=O)(=O)NC(=O)NC3CCCCC3)cc2)cn1 | inactive [sample A] and active: 24.1 µM [sample B] and inactive [sample C] |
| CN(Cc1cnc2nc(N)nc(N)c2n1)c1ccc(C(=O)N[C@@H](CCC(=O)O)C(=O)O)cc1 | inactive [sample A] and active: 20.3 µM [sample B] |
